The text below walks through data of the supplement of paper PMC11417369.

± gives the standard deviation of the averaged measurements. The list shows a part of the results.

The assay has as its system PfAP2-EXP AP2 domain (GST-tagged). As to the kind of experiment: gcPBM binding intensity (ln(normalized median fluorescence intensity)); higher = stronger DNA binding. The essentials:
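Using an Agilent 4 × 180k array, primer-extended double-stranded 36-bp intergenic genomic probes and negative controls were exposed for 1 h to GST-fused P. falciparum DNA-binding domains expressed in E. coli. Binding was carried out in 1× PBS with 1% milk, 0.2 mg/ml BSA, 0.5% salmon testes DNA and 0.03% Triton X-100, and protein was detected with Alexa488 anti-GST antibody and a 488 nm scan. Binding intensity is the highest Masliner-normalised natural-log median intensity across replicate spots of either probe orientation.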
In the case of “TTCATTTATTTACTTACACACTTTATATATGTGGTT [CACACA_site4901]”, the “gcPBM binding intensity (ln)” value is 8.85 ± 0.34.

For the sequence “TCTATTCAAAATAAAAGTACTAGCATGTGAATTGTT [XGTACX_site5530]”, the “gcPBM binding intensity (ln)” value stood at 8.71 ± 0.42.

“TACAAGTTTTTAAAGTGTACCAAAAAAAAAGAATAA [XGTACX_site979]”: the “gcPBM binding intensity (ln)” value was 8.66 ± 0.36.

On to “ATATATAAAATATACACACATACTGTTCATTTAAAG [CACACA_site4169]”, for which the “gcPBM binding intensity (ln)” value is 8.38 ± 0.42.

As for “TTACAACAGAATGGTATTTTTTTATTTTAAAGAAAA [TGCATGCA_negctrl_site230]”, the “gcPBM binding intensity (ln)” value is 8.04 ± 0.38.

Turning to “ATATGTAAAACTTCAAAAAAATATATTTTATGACGA [GTGCAC_negctrl_site324]”, the “gcPBM binding intensity (ln)” value came to 8.48 ± 0.48.

Regarding “ATCCTACTATGTTATACACACAATTACTTTTTTCTC [CACACA_site3712]”, the “gcPBM binding intensity (ln)” value was determined as 9.03 ± 0.47.

In the case of “AATATTTATGTGAAGACACACAACTGTTTATTATAT [CACACA_site3447]”, the “gcPBM binding intensity (ln)” value came to 8.51 ± 0.44.

Take “TTTTTTCTTTCTTTCAAACACACATTAATTTTATTC [CACACA_site2733]”: the “gcPBM binding intensity (ln)” value came out at 8.66 ± 0.49.

Turning to “AAAATTTATATAGGCACACAAATAAATTAATACATA [CACACA_site1418]”, the “gcPBM binding intensity (ln)” value came out at 8.59 ± 0.33.

Regarding “AAAAATGAAAGGTGTACACATACAAACATAGAAAGA [CACACA_site5020]”, the “gcPBM binding intensity (ln)” value was 9.29 ± 0.49.

On to “TTTTTTTTTTTTTGGTGTACTTTTTTTAGAACGCAA [XGTACX_site4207]”, for which the “gcPBM binding intensity (ln)” value worked out at 8.33 ± 0.3.

For the sequence “TGTTCAAATTTATTCGATCTTTATATTTAATAAAAC [CACACA_negctrl_site781]”, the “gcPBM binding intensity (ln)” value was 8.21 ± 0.4.

In the case of “ATTCTACACCCACATACACACATATATATATATATA [CACACA_site3426]”, the “gcPBM binding intensity (ln)” value was found to be 10.2 ± 0.26.

As for “ATATTAGAAATATGAATAGAAAGAATATATAAGTAT [CACACA_negctrl_site682]”, the “gcPBM binding intensity (ln)” value worked out at 8.81 ± 0.44.

Turning to “AGATACTTTCCTCAAACACACAAAACTATACAACAA [CACACA_site1474]”, the “gcPBM binding intensity (ln)” value came to 8.71 ± 0.54.

With “GTTAGCTCGTTCGGAGCACACACATATATATATATA [CACACA_site8595]”, the “gcPBM binding intensity (ln)” value is 10.1 ± 0.45.

As for “ATTCAGTTCTATAATACACACATATATTGACATTAT [CACACA_site7309]”, the “gcPBM binding intensity (ln)” value turned out to be 8.71 ± 0.39.

Consider “ATATTCTTCTAAAGGCGTACATCTACATTTATGAAA [XGTACX_site2145]”, for which the “gcPBM binding intensity (ln)” value came to 8.84 ± 0.16.

In the case of “AGATACGATTATATGCGTTCAATATACCAAATAATT [TGCATGCA_negctrl_site501]”, the “gcPBM binding intensity (ln)” value came out at 8.49 ± 0.23.

Turning to “CTTTGTGTTAAAAGTAGTACACCAAAAATATGACTT [XGTACX_site622]”, the “gcPBM binding intensity (ln)” value turned out to be 8.7 ± 0.42.

With GAATAAATATTAAATGTGCACTTGAATAGATGTAAA, the “gcPBM binding intensity (ln)” value was found to be 9.07 ± 0.014.

Take “CACGCGCCCGGACACACACACACACCCATATATATA [CACACA_site5251]”: the “gcPBM binding intensity (ln)” value was determined as 8.92 ± 0.37.

On to “TTTTTCATCATATGTTGTACAATGTGTAGATATATT [XGTACX_site3195]”, for which the “gcPBM binding intensity (ln)” value turned out to be 8.69 ± 0.2.

Regarding “AAGAGAAATTATAACATGTGAAATGTATTATATATA [TGCATGCA_negctrl_site254]”, the “gcPBM binding intensity (ln)” value was determined as 8.43 ± 0.44.

Regarding “ATTTATATATAATATACACACATATAATCCACATAT [CACACA_site699]”, the “gcPBM binding intensity (ln)” value was 8.54 ± 0.28.

Regarding “TAAGTATAATATTGATGTACATATAATAACTTGTAT [XGTACX_site417]”, the “gcPBM binding intensity (ln)” value amounted to 8.43 ± 0.33.

In the case of “TATCTCTTATTTTATTGTACTTAACTATGCTATAAT [XGTACX_site4904]”, the “gcPBM binding intensity (ln)” value worked out at 8.85 ± 0.4.

Regarding “AAAAATAAAAAAATGACACACATATATATATATATA [CACACA_site2307]”, the “gcPBM binding intensity (ln)” value worked out at 10 ± 0.53.

For “ATTCAAATTGTAGAAACACACAAAAACTTAACATAT [CACACA_site2617]”, the “gcPBM binding intensity (ln)” value came to 8.7 ± 0.44.

As for “TAGTTAACAAATAATGCACACAAATGGATAAAATTA [CACACA_site9240]”, the “gcPBM binding intensity (ln)” value was 8.9 ± 0.28.

As for “CATATGATATGTTATACACACACGTATATATGAATT [CACACA_site3446]”, the “gcPBM binding intensity (ln)” value was found to be 8.54 ± 0.45.

Consider “AAGGGAAAATTAAGGTTGCACTAAAAATATATCTTT [GTGCAC_site9608]”, for which the “gcPBM binding intensity (ln)” value was determined as 8.35 ± 0.33.

“ATGAACATACAATATACACACATATATATTTATATT [CACACA_site4609]”: the “gcPBM binding intensity (ln)” value was determined as 8.55 ± 0.52.

On to “TACTATAACGCACATACACACAAAAAAAAAAAAAAA [CACACA_site8073]”, for which the “gcPBM binding intensity (ln)” value came out at 8.76 ± 0.23.

“TATATATATATTTTTGCATGTAATTTTTATGAGGAC [TGCATGCA_site884]”: the “gcPBM binding intensity (ln)” value worked out at 9.79 ± 0.29.

With “TTATACATGAAATATTGTACACATATATATATATAT [XGTACX_site4378]”, the “gcPBM binding intensity (ln)” value came out at 10.1 ± 0.32.

Regarding “ATATGGTGATATAGGTGTACATTTTGATGCTTATTT [XGTACX_site4283]”, the “gcPBM binding intensity (ln)” value was found to be 8.65 ± 0.47.

On to “AATTAGATTATGCACACACACTTAAAAATAATAAAT [CACACA_site7015]”, for which the “gcPBM binding intensity (ln)” value came to 8.72 ± 0.32.

Consider TTTTTTTTTTTCTTAGTGCGCGTGAAAAATATAAAA, for which the “gcPBM binding intensity (ln)” value stood at 8.43 ± 0.26.

For the sequence “TTACTCAAACAAACAAAAAAAAAAAAAAAAAAAAAA [TGCATGCA_negctrl_site457]”, the “gcPBM binding intensity (ln)” value was determined as 7.88 ± 0.26.

In the case of “ATATATAGAATGTGTACACACATATGTATTTATATA [CACACA_site810]”, the “gcPBM binding intensity (ln)” value is 8.55 ± 0.14.

Take “ATTTTTTATGGACAAAAGACCTCTGATGTAAATATA [CACACA_negctrl_site1081]”: the “gcPBM binding intensity (ln)” value stood at 8.3 ± 0.39.

On to “GATAAATGTATATATGCATGCACATATATTTATACA [TGCATGCA_site748]”, for which the “gcPBM binding intensity (ln)” value came to 9.785 ± 0.021.
